# From the supplement of paper PMC6828730
# The list shows a part of the results. Many values rest on one well or one pass, so single values are uncertain.
# Tests used:
# [1] = tested on: hiPSC-derived cardiomyocytes; test: time to death of most cells in well after compound addition (days); higher = less cardiotoxic; details: screen: 1; 10 µM
# [2] = tested on: hiPSC-derived cardiomyocytes; test: time to death of most cells in well after compound addition (days); higher = less cardiotoxic; extreme values may be limits of the assay; details: 10 µM
SMILES,time to death of most cells in well [1],time to death of most cells in well ([2]; screen: 2),time to death of most cells in well ([2]; screen: 3),time to death of most cells in well ([2]; screen: 4)
NC1(C(=O)N[C@@H](CCO)c2ccc(Cl)cc2)CCN(c2ncnc3[nH]ccc23)CC1,> 7,4.5,6,> 7
Cn1cc(C2=C(c3cn(C4CCN(Cc5ccccn5)CC4)c4ccccc34)C(=O)NC2=O)c2ccccc21,5,5,> 7,> 7
CCN(CC)CCCC(C)Nc1nc(C)cc(Nc2ccc3nc(C)cc(N)c3c2)n1 (stereo not given),> 7,> 7,> 7,> 7
COc1cc2c(Nc3ccc(NC(=O)c4ccccc4)cc3)ncnc2cc1OCCCN1CCOCC1,> 7,1.5,> 7,> 7
CCN1CCN(C(=O)Cc2ccc(Nc3ncc(F)c(Nc4ccc(C(=O)Nc5ccccc5Cl)cc4)n3)cc2)CC1 [Aurora A Inhibitor I],5,> 7,6,> 7
O=C(NCCO)c1cccc(-c2cc(Nc3ccc(OC(F)(F)F)cc3)ncn2)c1,> 7,3,> 7,> 7
Cc1csc(-c2nnc(Nc3ccc(Oc4ncccc4-c4ccnc(N)n4)cc3)c3ccccc23)c1,> 7,5.5,> 7,> 7
Cc1ccc(Nc2nccc(N(C)c3ccc4c(C)n(C)nc4c3)n2)cc1S(N)(=O)=O,> 7,> 7,> 7,> 7
O=C(Cc1ccc(-c2ccc(OCCN3CCOCC3)cc2)cn1)NCc1ccccc1,> 7,> 7,> 7,> 7
COc1cc2nccc(Oc3ccc(NC(=O)NC4CC4)c(Cl)c3)c2cc1C(N)=O [Lenvatinib (E7080)],> 7,> 7,> 7,> 7
